Some of the results follow. The full chains were built here from the parent and the listed change. Inactive controls read about 0.05.
B1: TEV protease; numbered along this chain (parent)
chain: MGESLFKGPRDYNPISSSICHLTNESDGHTTSLYGIGFGPFIITNKHLFRRNNGTLVVQSLHGVFKVKDTTTLQQHLVDGRDMIIIRMPKDFPPFPQKLKFREPQREERICLVTTNFQTKSMSSMVSDTSCTFPSGDGIFWKHWIQTKDGQCGSPLVSTRDGFIVGIHSASNFTNTNNYFTSVPKNFMELLTNQEAQQWVSGWRLNADSVLWGGHKVFMVKPEEPFQPVKEATQL

Variants of: B1
Test: raw area under fraction-flipped curve 0-4 h after induction (AUC4h, not background-subtracted), DNA-recorder readout of cleavage of the substrate (dimensionless); higher = more cleavage of the substrate by the protease variant
Conditions: temperature: 34 °C; time window: 0-4 h after rhamnose induction
Method: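 In vivo DNA recorder in E. coli TOP10(DE3) ΔrhaA at 34 °C. Each TEVp single-site mutant (parent TEVp 0) is paired with a single-site variant of the 7-mer TEVs (canonical ENLYFQ|S). The substrate sits between flexible linkers in a Bxb1-sfGFP-TEVs-SsrA fusion, so cleavage stabilises Bxb1 and speeds flipping of a recombination array, read by NGS. The value is the raw area under the fraction-flipped curve over 0-4 h after rhamnose induction (AUC4h), with ≥20 reads per time point. It is not background-subtracted; inactive controls average about 0.047.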
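Also: Bxb1 expression induced with 0.2% (w/v) L-rhamnose at OD600 near 0.5, cultures sampled hourly, flipped fraction per protease–substrate barcode pair counted by paired-end Illumina sequencing.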

Variant | area with substrate ENLYFQC | area with substrate ENLYFQH | area with substrate ENLYFQI | area with substrate ENLYFQK | area with substrate ENLYFQL | area with substrate ENLYFQM | area with substrate ENLYFQN | area with substrate ENLYFQR | area with substrate ENLYFQS | area with substrate ENLYFQT | area with substrate ENLYFQW | area with substrate ENLYFQY | area with substrate ENLYFQE | area with substrate ENLYFQG | area with substrate ENLYFQP | area with substrate ENLYFQQ | area with substrate ENLYFQV | area with substrate ENLYFQD | area with substrate ENLYFQF
MGESLFKGPRDYNPISSSICHLTNESDGHTTSLYGIGFGPFIITNKHLFRRNNGTLVVQSLHGVFKVKDTTTLQQHLVDGRDMIIIRMPKDFPPFPQKLKFREPQREERICLVTTNFQTKSMSSMVSVTSCTFPSGDGIFWKHWIQTKDGQCGSPLVSTRDGFIVGIHSASNFTNTNNYFTSVPKNFMELLTNQEAQQWVSGWRLNADSVLWGGHKVFMVKPEEPFQPVKEATQL [D128V] | 0.133 | 0.111 | 0.0791 | 0.0542 | 0.0665 | 0.108 | 0.1 | 0.0697 | 0.131 | 0.073 | 0.0782 | 0.0577 | – | – | – | – | – | – | –
MGESLFKGPRDYNPISSSICHLTNESDGHTTSLYGIGFGPFIITNKHLFRRNNGTLVVQSLHGVFKVKDTTTLQQHLVDGRDMIIIRMPKDFPPFPQKLKFREPQREERICLVTTNFQTKSMSSMVSDFSCTFPSGDGIFWKHWIQTKDGQCGSPLVSTRDGFIVGIHSASNFTNTNNYFTSVPKNFMELLTNQEAQQWVSGWRLNADSVLWGGHKVFMVKPEEPFQPVKEATQL [T129F] | 0.0996 | – | – | 0.0603 | 0.0664 | 0.0756 | 0.0777 | 0.0586 | 0.0832 | 0.0821 | – | – | 0.0666 | 0.0738 | 0.0663 | 0.0843 | 0.0039 | – | –
MGESLFKGPRDYNPISSSICHLTNESDGHTTSLYGIGFGPFIITNKHLFRRNNGTLVVQSLHGVFKVKDTTTLQQHLVDGRDMIIIRMPKDYPPFPQKLKFREPQREERICLVTTNFQTKSMSSMVSDTSCTFPSGDGIFWKHWIQTKDGQCGSPLVSTRDGFIVGIHSASNFTNTNNYFTSVPKNFMELLTNQEAQQWVSGWRLNADSVLWGGHKVFMVKPEEPFQPVKEATQL [F92Y] | 0.0894 | 0.0887 | 0.0456 | 0.0504 | – | 0.0955 | 0.0788 | 0.0616 | 0.106 | 0.0849 | 0.0439 | – | – | – | 0.0462 | 0.0621 | – | 0.0401 | 0.05
MGESLFKGPRDYNPISSSICHLTNESDGHTTSLYGIGFGPFIITNKHLFRRNNGTLVVQSLHGVFKVKDTTTLQQHLVDGRDMIIIRMPKDFPPFPQKLKFREPQREERSCLVTTNFQTKSMSSMVSDTSCTFPSGDGIFWKHWIQTKDGQCGSPLVSTRDGFIVGIHSASNFTNTNNYFTSVPKNFMELLTNQEAQQWVSGWRLNADSVLWGGHKVFMVKPEEPFQPVKEATQL [I110S] | 0.0382 | – | – | 0.052 | 0.0536 | 0.07 | 0.0549 | 0.0531 | 0.0632 | 0.0567 | 0.0562 | 0.0513 | 0.0597 | 0.0528 | – | – | 0.0512 | 0.0552 | 0.0431

— the supplement of paper PMC12217912
